Test results taken from the RNAGym collection of RNA variant scans (doi:10.7554/elife.90254).
Read counts are not given, so values of variants with three or more changes are uncertain.

B1: LINE1-full (parent)
chain: UACGUAGGUGGUUUUCCCCUGAUAGUGCUAAGGGGGCCUGGAAGUUUGGACUGGGCAGAGCUCAACACAGCGUGGCAAAGUGGCUGUGGCUAGACUGCCUCUCUGGAUUCCUCGUCACUCAGCAGGGCAUCUCUGAGAGAAAUGCC

Variants of: B1
Test: self-cleavage, relative activity (ratio to wild type); higher = more cleavage; in vitro, sequencing; the parent is a self-cleaving ribozyme

| Variant | self-cleavage |
| --- | --- |
| A24G A64G U96C A107G A124U | 0 |
| A24G A64U A77G | 1.15 |
| A24G A65G U73A | 0.03 |
| A24G A65U C98U | 0.15 |
| A24G A67U U100A U109C A117G | 0 |
| A24G A69G U73A | 0.37 |
| A24G A69U C113U | 0.08 |
| A24G A77G A78G | 1.15 |
| A24G A77G C101U A124C | 1.53 |
| A24G A77G G86U A94G A136G | 0.4 |
| A24G A77U U104C G126A | 1.69 |
| A24G A77U U143C | 1.14 |
| A24G A78U U119C | 2.13 |
| A24G A92G A124U A141G | 0.19 |
| A24G A92G A136G A138G A141G | 1.41 |
| A24G A94U U102C | 0.3 |
| A24G A121U U132A | 2.3 |
| A24G A141G C146U | 0.69 |
| A24G C28U U100C | 1.56 |
| A24G C63U U134A U143C | 0.25 |
| A24G G25A U73A A124U | 1.41 |
| A24G G27A U112C | 0.7 |
| A24G G32A U39C U52G A129G A136G | 0.84 |
| A24G G32A U100C U108C A138U | 0.51 |

| Variant | self-cleavage |
| --- | --- |
| A24G G34A A50G C63U | 0.47 |
| A24G G35A A50G | 0.64 |
| A24G G53U A78U U130C | 1.43 |
| A24G G54A U96A | 0 |
| A24G G55A U81C | 0.64 |
| A24G G60C A92U U132A | 0.12 |
| A24G G74U U85A A138G | 0.1 |
| A24G G88A A94U C116A G126A A129G | 0.03 |
| A24G G89A U108C A142G | 0.1 |
| A24G G89A U115G | 0 |
| A24G G93U U109C A138G | 0.1 |
| A24G U26A U102C A124G | 0.46 |
| A24G U26C G34A G35A A57U A65G U81A U100C | 0.45 |
| A24G U29C A67U U100C C118U | 0 |
| A24G U29C G75A U87C A138G | 0.45 |
| A24G U39A U91C | 0.84 |
| A24G U39C A107U U115C | 0 |
| A24G U39C U46A A129G A142U | 0.61 |
| A24G U39C U62C A138G | 0.43 |
| A24G U45C A77G | 2.58 |
| A24G U45C G49A | 2.03 |
| A24G U46C A59G U73A G122A | 0.29 |
| A24G U47A C71U A140G | 0.45 |
| A24G U47A C131U A138G | 0.86 |

| Variant | self-cleavage |
| --- | --- |
| A24G U47A U87G | 0.14 |
| A24G U47A U96C | 0 |
| A24G U47C A78G U96C U115A | 1.31 |
| A24G U47C C63U A79G U104A | 0.94 |
| A24G U47C U52A A57G A141G | 0.92 |
| A24G U52A U96A | 0.1 |
| A24G U52G U62A A107G U119A | 0.46 |
| A24G U62C C113A | 0.5 |
| A24G U73A A94G A140U | 0.35 |
| A24G U85C A117G C133U | 0 |
| A24G U85C U100A | 0.14 |
| A24G U87A A117C | 0 |
| A24G U87A U96C | 0.26 |
| A24G U87A U132C | 0.07 |
| A24G U96A C120U | 0.12 |
| A24G U108C A138G | 2.21 |
| A24G U108C C113A | 1.84 |
| A24G U109A A142G | 1.6 |
| A24G U115C A138G | 1.72 |
| A24U A30G A78U A107G U108C A121U U134A | 0 |
| A24U A31G A79U | 1.2 |
| A24U A42G C61U U100C U132C U143G | 0.08 |
| A24U A43G U81G | 1.59 |
| A24U A50G A59G A65U U104C A142G | 0 |

| Variant | self-cleavage |
| --- | --- |
| A24U A50G U62C U91A C116A | 0.12 |
| A24U A50G U112C | 2.04 |
| A24U A57G G106U | 0.31 |
| A24U A57U U87A | 0.06 |
| A24U A59G A136U | 0.11 |
| A24U A59U U85A U100C A136G | 0 |
| A24U A65C U91C | 0.32 |
| A24U A77G U100C | 1.79 |
| A24U A94G U134C | 0.84 |
| A24U A107G C128U | 1.56 |
| A24U C28U U45C A78G | 1.59 |
| A24U C37G U85C A129G | 0.36 |
| A24U C38U A138G | 1.79 |
| A24U C71G U100C A124G | 0.12 |
| A24U C76G A77G | 2.15 |
| A24U G34A A57C A117U | 0.09 |
| A24U G34A A138G C146A | 1.51 |
| A24U G36U U96C A129G | 0.17 |
| A24U G41A A42U U104C | 1.43 |
| A24U G80A U108C | 2 |
| A24U G122A A136U | 1.44 |
| A24U U26C G35A U47C A94G | 0.55 |
| A24U U29G A140G | 0.82 |
| A24U U39C A50U A67G A142G | 0.47 |

| Variant | self-cleavage |
| --- | --- |
| A24U U39C A78U U104A U143C | 1.41 |
| A24U U39C U91G U143A | 0 |
| A24U U46G U73A | 1.67 |
| A24U U62A A69G A94G | 0.31 |
| A24U U62A A69G U100C A107G | 0 |
| A24U U85A A136G | 0 |
| A24U U87C U109C A124G | 0 |
| A24U U87G U96C U119C | 0 |
| A24U U100C A121G | 0 |
| A24U U109C A129U | 1.6 |
| A24U U115C A129G A141U | 2.38 |
| G25A A42U A57G C63A A64G | 0.02 |
| G25A A50G U143C | 0.75 |
| G25A A57G G93A U119C | 0.04 |
| G25A A57U A117G U143A | 0.14 |
| G25A A57U U62A A141C | 0.02 |
| G25A U29C U85C | 0.14 |
| G25A U52C G122A | 1.19 |
| G25A U73A A77G A79U | 2.73 |
| G25A U81C U91A A92G | 0 |
| G25A U87A U132C | 0.09 |
| G25A U87C U130C U143A | 0 |
| G25A U102A U112C | 1.65 |
| G25C A42G A77G G93U | 0.12 |

| Variant | self-cleavage |
| --- | --- |
| G25C A42U U62A | 0.04 |
| G25C U26C A57G A107G | 0 |
| G25C U104A A142U | 1.4 |
| G25U A43G A65U A117G | 0.17 |
| G25U A43G U108C | 1.67 |
| G25U U45C A121U | 1.47 |
| U26A A30C U45C U96A A142G | 0 |
| U26A A30G U45G A59C | 0.84 |
| U26A A30U U96A | 0.09 |
| U26A A31G A67G | 0 |
| U26A A42G A140G | 0.2 |
| U26A A43U U45C | 1.75 |
| U26A A50G A57U | 0.1 |
| U26A A50G U108C | 1.58 |
| U26A A57C U96A | 0.09 |
| U26A A57G A78G U91C | 1.15 |
| U26A A57G A124G | 0.07 |
| U26A A57U A67G U108C | 0.33 |
| U26A A59U A67U A124G | 0.02 |
| U26A A64G U109C | 0.41 |
| U26A A64U U134A | 0 |
| U26A A65G U73A | 0 |
| U26A A65G U115A | 0.04 |
| U26A A65G U134C | 0.07 |

| Variant | self-cleavage |
| --- | --- |
| U26A A65U A77G | 0.21 |
| U26A A67U U91C U102A A142G | 0.05 |
| U26A A69G A78U A136U | 0.57 |
| U26A A77G A78G A138G | 1.31 |
| U26A A78G A121G A141G | 0 |
| U26A A79G U143G | 0.62 |
| U26A A94G U132C G144A | 0.4 |
| U26A A129G U132A | 1.17 |
| U26A C66A U81A | 0.07 |
| U26A G33A U102C A124G | 0.86 |
| U26A G44A U100A | 0.57 |
| U26A G58A U73G A78G G86A U87A C113U A129G A138G | 0.01 |
| U26A G105A U115C A138G | 1.34 |
| U26A U39C A107G | 0.71 |
| U26A U39C C113A | 0.76 |
| U26A U39C G106C A142G | 0.63 |
| U26A U39C U87C A138G | 0.05 |
| U26A U45C C71U A121G | 0.58 |
| U26A U46C C113U | 0.38 |
| U26A U47A U73A A94G A124G | 0.19 |
| U26A U47A U104C A121G | 0.26 |
| U26A U47C A77U | 1.54 |
| U26A U52A U96A U132C | 0.06 |
